Data reported in US20230120736A1, “ANTI-CD98 ANTIBODIES AND ANTIBODY DRUG CONJUGATES” (AbbVie Inc., priority 2016, published 2023).
Positions count from the first letter of the chain named.

B1: CD98 (CL-huAb108)-TV (conjugate)
heavy: EVQLVQSGAEVKKPGASVKVSCKASGFTFSDYTMAWVRQAPGQGLEWVATIIYSGRGTYYRDAVKGRFTITRDNSTSTLYLELSSLRSEDTAVYYCARQSDDTYYYWGYFDYWGQGTMVTVSSASTKGPSVFPLAPSSKSTSGGTAALGCLVKDYFPEPVTVSWNSGALTSGVHTFPAVLQSSGLYSLSSVVTVPSSSLGTQTYICNVNHKPSNTKVDKKV[omitted - human IgG1 Fc with changes]
light: DIVMTQTPLSLPVTPGEPASINCKSSQSLLFSGNQKNYLAWYLQKPGQSPQLLIYWASTRQSGVPDRFSGSGSGTDFTLKISRVEAEDVGIYYCQQYYDVPYTFGQGTKLEIKRTVAAPSVFIFPPSDEQLKSGTASVVCLLNNFYPREAKVQWKVDNALQSGNSQESVTEQDSKDSTYSLSSTLTLSKADYEKHKVYACEVTHQGLSSPVTKSFNRGEC
B2: CD98 (CL-huAb104)-TV (conjugate)
heavy: EVQLVESGGGLVQPGGSLRLSCATSGFTFIDYYMSWVRQAPGKGLEWLGFIRNKAYGYTTEYSASVKGRFTISRDNSKSILYLQMNSLKTEDTAVYYCTRDRPAWFVYWGQGTLVTVSSASTKGPSVFPLAPSSKSTSGGTAALGCLVKDYFPEPVTVSWNSGALTSGVHTFPAVLQSSGLYSLSSVVTVPSSSLGTQTYICNVNHKPSNTKVDKKV[omitted - human IgG1 Fc with changes]
light: B1 light with N22S, F31Y, G33S, Q61E, I91V, D99S, V100Y, Q106G, L110V
B3: CD98 (CL-huAb108)-YY (conjugate)
heavy: EVQLVQSGAEVKKPGASVKVSCKASGFTFSDYTMAWVRQAPGQGLEWVATIIYSGRGTYYRDAVKGRFTITRDNSTSTLYLELSSLRSEDTAVYYCARQSDDTYYYWGYFDYWGQGTMVTVSSASTKGPSVFPLAPSSKSTSGGTAALGCLVKDYFPEPVTVSWNSGALTSGVHTFPAVLQSSGLYSLSSVVTVPSSSLGTQTYICNVNHKPSNTKVDKKV[omitted - human IgG1 Fc with changes]
light: B1 light
B4: CD98 (CL-huAb110)-LB (conjugate)
heavy: EVQLVQSGAEVKKPGASVKVSCKASGFTFSDYTMAWVRQAPGQGLEWVATIIYDARGTYYRDAVKGRFTITRDNSTSTLYLELSSLRSEDTAVYYCARQSDDTYYYWGYFDYWGQGTMVTVSSASTKGPSVFPLAPSSKSTSGGTAALGCLVKDYFPEPVTVSWNSGALTSGVHTFPAVLQSSGLYSLSSVVTVPSSSLGTQTYICNVNHKPSNTKVDKKV[omitted - human IgG1 Fc with changes]
light: B1 light with D99S, V100S
B5: CD98 (CL-huAb104)-AAD (conjugate)
heavy: EVQLVESGGGLVQPGGSLRLSCATSGFTFIDYYMSWVRQAPGKGLEWLGFIRNKAYGYTTEYSASVKGRFTISRDNSKSILYLQMNSLKTEDTAVYYCTRDRPAWFVYWGQGTLVTVSSASTKGPSVFPLAPSSKSTSGGTAALGCLVKDYFPEPVTVSWNSGALTSGVHTFPAVLQSSGLYSLSSVVTVPSSSLGTQTYICNVNHKPSNTKVDKKV[omitted - human IgG1 Fc with changes]
light: B1 light with N22S, F31Y, G33S, Q61E, I91V, D99S, V100Y, Q106G, L110V
modifications: non-natural residues
B6: CD98 (CL-huAb110)-YY (conjugate)
heavy: EVQLVQSGAEVKKPGASVKVSCKASGFTFSDYTMAWVRQAPGQGLEWVATIIYDARGTYYRDAVKGRFTITRDNSTSTLYLELSSLRSEDTAVYYCARQSDDTYYYWGYFDYWGQGTMVTVSSASTKGPSVFPLAPSSKSTSGGTAALGCLVKDYFPEPVTVSWNSGALTSGVHTFPAVLQSSGLYSLSSVVTVPSSSLGTQTYICNVNHKPSNTKVDKKV[omitted - human IgG1 Fc with changes]
light: B1 light with D99S, V100S
B7: CD98 (CL-huAb102)-AAD (conjugate)
heavy: EVQLVESGGGLVQPGGSLRLSCATSGFTFIDYYMSWVRQAPGKGLEWLGFIRNKANRYTTEYSASVKGRFTISRDNSKSILYLQMNSLKTEDTAVYYCTRDRPAWFVYWGQGTLVTVSSASTKGPSVFPLAPSSKSTSGGTAALGCLVKDYFPEPVTVSWNSGALTSGVHTFPAVLQSSGLYSLSSVVTVPSSSLGTQTYICNVNHKPSNTKVDKKV[omitted - human IgG1 Fc with changes]
light: B1 light with N22S, F31Y, G33S, Q61E, I91V, D99S, V100Y, Q106G, L110V
modifications: non-natural residues
B8: CD98 (CL-huAb110)-AAD (conjugate)
heavy: EVQLVQSGAEVKKPGASVKVSCKASGFTFSDYTMAWVRQAPGQGLEWVATIIYDARGTYYRDAVKGRFTITRDNSTSTLYLELSSLRSEDTAVYYCARQSDDTYYYWGYFDYWGQGTMVTVSSASTKGPSVFPLAPSSKSTSGGTAALGCLVKDYFPEPVTVSWNSGALTSGVHTFPAVLQSSGLYSLSSVVTVPSSSLGTQTYICNVNHKPSNTKVDKKV[omitted - human IgG1 Fc with changes]
light: B1 light with D99S, V100S
modifications: non-natural residues
B9: CD98 (CL-huAb102)-YY (conjugate)
heavy: EVQLVESGGGLVQPGGSLRLSCATSGFTFIDYYMSWVRQAPGKGLEWLGFIRNKANRYTTEYSASVKGRFTISRDNSKSILYLQMNSLKTEDTAVYYCTRDRPAWFVYWGQGTLVTVSSASTKGPSVFPLAPSSKSTSGGTAALGCLVKDYFPEPVTVSWNSGALTSGVHTFPAVLQSSGLYSLSSVVTVPSSSLGTQTYICNVNHKPSNTKVDKKV[omitted - human IgG1 Fc with changes]
light: B1 light with N22S, F31Y, G33S, Q61E, I91V, D99S, V100Y, Q106G, L110V
B10: CD98 (CL-huAb104)-WD (conjugate)
heavy: EVQLVESGGGLVQPGGSLRLSCATSGFTFIDYYMSWVRQAPGKGLEWLGFIRNKAYGYTTEYSASVKGRFTISRDNSKSILYLQMNSLKTEDTAVYYCTRDRPAWFVYWGQGTLVTVSSASTKGPSVFPLAPSSKSTSGGTAALGCLVKDYFPEPVTVSWNSGALTSGVHTFPAVLQSSGLYSLSSVVTVPSSSLGTQTYICNVNHKPSNTKVDKKV[omitted - human IgG1 Fc with changes]
light: B1 light with N22S, F31Y, G33S, Q61E, I91V, D99S, V100Y, Q106G, L110V

Assay: Size exclusion chromatography, % aggregate fraction of ADC
Type: physicochemical
Conditions: ADCs of Table 27
Protocol: Size exclusion chromatography was performed using a Shodex KW802.5 column in 0.2M potassium phosphate pH 6.2 with 0.25 mM potassium chloride and 15% IPA at a flow rate of 0.75 ml/min. The peak area absorbance at 280 nm was determined for each of the high molecular weight and monomeric eluents by integration of the area under the curve. The % aggregate fraction of the conjugate sample was determined by dividing the peak area absorbance at 280 nm for the high molecular weight eluent by the sum of the peak area absorbances at […] of the high molecular weight and monomeric eluents multiplied by 100%.

Q: Which “% agg by SEC” value does the source give for B1 here?
A: 1.6%

Q: Which “% agg by SEC” value does the source give for B2 here?
A: 2.6%

Q: Which “% agg by SEC” value does the source give for B3 here?
A: 15.5%

Q: For B4, which “% agg by SEC” value is on record?
A: 18%

Q: Which “% agg by SEC” value does the source give for B5 here?
A: 2.3%

Q: With B6 as the molecule, how does the “% agg by SEC” value read?
A: 15.4%

Q: Which “% agg by SEC” value does the source give for B7 here?
A: 1.3%

Q: For B8, which “% agg by SEC” value is on record?
A: 2.9%

Q: With B9 as the molecule, how does the “% agg by SEC” value read?
A: 6.4%

Q: Which “% agg by SEC” value does the source give for B10 here?
A: 0%

Assay: DAR determination by LC-MS
Conditions: ADCs of Table 27
Protocol: LC-MS analysis was performed using an Agilent 1100 HPLC system interfaced to an Agilent LC/MSD TOF 6220 ESI mass spectrometer. The ADC was reduced with 5 mM (final concentration) BOND-BREAKER TCEP solution (Thermo Scientific, Rockford, Ill.), loaded onto a Protein Microtrap (Michrom Bioresorces, Auburn, Calif.) desalting cartridge, and eluted with a gradient of 10% B to 75% B in 0.2 minutes at ambient temperature. Mobile phase A was H2O with 0.1% formic acid (FA), mobile phase B was acetonitrile with 0.1% FA, and the flow rate was 0.2 ml/min. Electrospray-ionization time-of-flight mass spectra of the co-eluting light and heavy chains were acquired using Agilent MassHunter™ acquisition software. The extracted intensity vs. m/z spectrum was deconvoluted using the Maximum Entropy feature of MassHunter software to determine the mass of each reduced antibody fragment. DAR was calculated from the deconvoluted spectrum by summing intensities of the naked and modified peaks for the light chain and heavy chain, normalized by multiplying intensity by the number of drugs attached. The summed, normalized intensities were divided by the sum of the intensities, and the summing results for two light chains and two heavy chains produced a final average DAR value for the full ADC.

Q: Which “DAR by MS” value does the source give for B1 here?
A: 3.3

Q: Which “DAR by MS” value does the source give for B2 here?
A: 4.1

Q: With B3 as the molecule, how does the “DAR by MS” value read?
A: 1.8

Q: For B4, which “DAR by MS” value is on record?
A: 2.1

Q: Which “DAR by MS” value does the source give for B5 here?
A: 3.0

Q: With B6 as the molecule, how does the “DAR by MS” value read?
A: 1.9

Q: For B7, which “DAR by MS” value is on record?
A: 3.0

Q: With B8 as the molecule, how does the “DAR by MS” value read?
A: 3.2

Q: For B9, which “DAR by MS” value is on record?
A: 3.4
